# ± gives the standard deviation of the averaged measurements. Some of the results follow.
# Test system: PfAP2-LT AP2 domain (GST-tagged)
# Experiment: gcPBM binding intensity (ln(normalized median fluorescence intensity)); higher = stronger DNA binding
# Procedure, shortened: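 GST-tagged P. falciparum DNA-binding domains, expressed in E. coli (about 25 μg on average), were applied for 1 h to an Agilent 4 × 180k array of primer-extended double-stranded 36-bp intergenic genomic probes plus negative controls. The binding buffer was 1× PBS with 1% milk, 0.2 mg/ml BSA, 0.5% salmon testes DNA and 0.03% Triton X-100. Bound protein was detected with Alexa488 anti-GST antibody and scanned at 488 nm. Binding intensity is the highest Masliner-normalised natural-log median intensity across replicate spots of either probe orientation.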
row,Sequence,gcPBM binding intensity (ln)
1,CATCCACAAATATGTACACACATATATAAATATGTA [CACACA_site7407],9.11 ± 0.37
2,ATAATAACAAGGCGCTGTACTGTACCGTTTTTCATA [XGTACX_site6135],9.02 ± 0.38
3,GACAACTCTTTTCATACACACAAAAAAAAAAAAATA [CACACA_site2361],8.71 ± 0.42
4,CAATGTTAACATATTACACACATATGTATATATAAT [CACACA_site8878],9.14 ± 0.35
5,GATATATCCTATGTTATTTTTATGGTGTAATTTAGT [XGTACX_negctrl_site112],8.87 ± 0.37
6,TCACATATATATTAATGTACATATATTTTTTATGTA [XGTACX_site5125],8.75 ± 0.44
7,ATAAACAGAAAAAAAAAAAAAAAAAAAAAAAAAAAA [CACACA_negctrl_site143],8.05 ± 0.32
8,TTTTTTTTCTCACAAAAAATAATTAACAAAAAGGAA [XGTACX_negctrl_site154],8.02 ± 0.49
9,GATTTATACAAATATGTACACACTAATTATATATTA [CACACA_site8045],8.97 ± 0.33
10,TAAAAAAAAAAAAAAAGTACAAAAAAAATATTTTTT [XGTACX_site7941],8.33 ± 0.58
11,ATATGCTATTTACTAGTGCAAAATATTTAAAATATG [GTGCAC_site9517],8.61 ± 0.36
12,TTAATATAAGCAAATACACACACACCGATATATATA [CACACA_site9269],9.8 ± 0.26
13,GTTGCACAATGTTACACACACAATATAGATCGTTAA [CACACA_site6717],9.22 ± 0.42
14,ATAAAAAAAAAAAATACACACATATATTTATTTATA [CACACA_site6903],8.73 ± 0.49
15,TTTATATGGATTTTTTTTTAATATTTCTTTTAATTT [TGCATGCA_negctrl_site361],8.29 ± 0.47
16,ATATATATATATATATGTACTTATTTATATATTTAT [XGTACX_site7811],9.18 ± 0.57
17,TGGTTATTTATCTTTATTATAAATATTTACAAATAA [CACACA_negctrl_site1773],8.3 ± 0.4
18,ATAAGAAGAAGAAAAACACACATATGTAGATATATA [CACACA_site7469],9.01 ± 0.42
19,GTATATATTAAAAAAAAAAAAAAAAAATTAAAATTA [CACACA_negctrl_site572],8.13 ± 0.49
20,GGAATATTAATAAGAGTGCATTTTGTATTCAATATG,8.66 ± 0.41
21,TATAAGAAAAATAACACACACATAAACATATATACA [CACACA_site2785],9.57 ± 0.28
22,TAGACTGGACATTAATGTACATAAATATATATGTAT [XGTACX_site7726],9.01 ± 0.52

row,Sequence,gcPBM binding intensity (ln)
1,AAAAAAAAAATTCATTGTACATATATATATATATAT [XGTACX_site8346],9.22 ± 0.55
2,TTATTGTACTTGCTCGCATGCAATAAAAATATATTA [TGCATGCA_site580],8.59 ± 0.26
3,ATAAAAATAAAAAACTGTACATACAAGATGTTACAG [XGTACX_site6690],8.6 ± 0.49
4,ATGCTTCCTTAGGAATGTACACACATATATAATATG [XGTACX_site873],9.09 ± 0.33
5,AAATAATATTTTACATGTACATAATAATTATTGGAT [XGTACX_site2783],8.74 ± 0.39
6,TAAATATTTAAATATTGTACTAGGTATAATTGAATA [XGTACX_site3604],8.43 ± 0.45
7,ATTATTAATAATTGTGTGCACAAATATTTATATGCT,9.18 ± 0.42
8,ATATCAATATAAAGTACACACTATAGTATGTATTAT [CACACA_site5286],9.15 ± 0.49
9,TTTATACAATTAGACACACACAAAAAGTATATATAT [CACACA_site1082],9.22 ± 0.36
10,CATTCAAAGAAAAACTGTACGTGTAGCAAACGTCAT [XGTACX_site2576],8.71 ± 0.45
11,ATGGGTATATTTCCACGTACAAAAAATCCGAATTGC [XGTACX_site1490],8.8 ± 0.41
12,ATATAATTACATTGATGTACACGAAATGATTAACAT [XGTACX_site5183],8.86 ± 0.38
13,CAAATACCCGGACACACACACACAAAAAAAAAAAAA [CACACA_site4441],10 ± 0.67
14,TTCTTTTTAAATTACACACACATATATATCTGTATA [CACACA_site5863],9.45 ± 0.41
15,TCATTATTAATATGTAGTACATTATATGATATGTAT [XGTACX_site8978],8.71 ± 0.38
16,ATGAACATACAATATACACACATATAGATTTATATT [CACACA_site6524],9.18 ± 0.4
17,TAAAGGATTTTCGAAGCATGCCACCTGTGACATACT [TGCATGCA_site130],8.74 ± 0.3
18,TATTCAAAGAAAAACTGTACGTGTAGCCTACATCCT [XGTACX_site7707],8.69 ± 0.46
19,TTTTTTGTTATTTTCCGTTTTTTTCCATTATAATTT [GTGCAC_negctrl_site461],8.72 ± 0.51
20,ACGTTAAAAACAAGTTGTACACAATAAATTATTCTT [XGTACX_site6321],8.73 ± 0.52
21,TATATATATATATGTAGTACTTTACAAAATAATTCG [XGTACX_site5322],9.06 ± 0.13
22,TAGTTATCACATTGCACACACATTTCCTTTTACATT [CACACA_site7589],9.51 ± 0.31

row,Sequence,gcPBM binding intensity (ln)
1,TTATTTATACGCTATGAGTTTGATACAAACAATTAA [XGTACX_negctrl_site456],8.54 ± 0.26
2,TTTTTACGGAATTAGAGAAAAGAAATAAAAAAAAAA [XGTACX_negctrl_site436],8.07 ± 0.54
3,TTTATATTTATGTAGGTGCATTTGTTTACAACATAT [GTGCAC_site9511],8.87 ± 0.49
4,AATAAATTCATGATAGTGCAAAAATTATTTTTGTTA,8.6 ± 0.44
5,GCATAACCTTTATATTGTACATATACCTTTATTGTT [XGTACX_site6046],9.24 ± 0.42
6,AAAGATGATAAAATATGTACACACAGTTTATACATT [XGTACX_site8703],8.98 ± 0.38
7,TGAGTCTTTTACATTGCACACACATTTCTTTCCTTT [CACACA_site8978],9.66 ± 0.35
8,ATTATCCATCAAAAGGTGCAAATTTTTAATTATAAA [GTGCAC_site9932],8.52 ± 0.45
9,ATATATGTATATATGTACATGAATATATAAAGAAAA [CACACA_negctrl_site315],9.01 ± 0.52
10,ACAAATAAATAAATATGTACTTAATTATATAATTGA [XGTACX_site5626],8.5 ± 0.34
11,TATTTATACTAATATGCATGTAATCGAAATACAGCT [TGCATGCA_site457],8.77 ± 0.33
12,GTTTATATTTAATTTTTTTGTTTTTTTGTGTAATTC [XGTACX_negctrl_site194],8.74 ± 0.59
13,ATATATATAAACAAAAGTACATATATAAATTCATTT [XGTACX_site3482],8.71 ± 0.43
14,TCTTATATTATATTGTGTATTAAAATTTAACTTCAA [TGCATGCA_negctrl_site565],8.46 ± 0.53
15,TTAAAGTTACATTCGACACACACATAACAACTAAAT [CACACA_site9130],9.36 ± 0.31
16,AATAAAAAAAAAATATATATTTTTTTTTTTTTTTTT [CACACA_negctrl_site54],8.39 ± 0.27
17,ATCTATTCACACTTTTAAAAATTAAATATATTATAT [TGCATGCA_negctrl_site610],8.52 ± 0.44
18,TAATTTTTTTTTTATAGTACACATATTAAAGAATTA [XGTACX_site2485],8.16 ± 0.24
19,CAAATACATAGACACACACACATATACATATTTATA [CACACA_site7610],9.86 ± 0.5
20,GAATAAAGGAGAGGCACACATATATATATATATATA [CACACA_site2452],10.04 ± 0.085
21,TATTTGATAAATTATACACACACAATATATATAAAA [CACACA_site8625],9.2 ± 0.3
22,TTTATATTTAAATGCATGCACTTTCTATTTTTTTTT [GTGCAC_site9959],9.13 ± 0.53

row,Sequence,gcPBM binding intensity (ln)
1,GAGGATCATCAATTCACACACATAAAAATGAAGTTA [CACACA_site3078],9.13 ± 0.5
2,TATATAAAATTCTATTGTACATGTTATACGAAAGAA [XGTACX_site5711],8.53 ± 0.35
3,CAACGATACAAAAAAGGTACACATATATATATATAT [XGTACX_site8688],9.86 ± 0.014
4,CAATTTTCTAATGAAACATGCAAAATAAAATTTTAT [TGCATGCA_site13],8.39 ± 0.4
5,TTCTTTTTAATGTCGGTGCAACTCCATAAAAACAAA [GTGCAC_site9488],8.22 ± 0.35
6,TTTGTAGCACTTAAGAGTACAAAATGTATAAGATTT [XGTACX_site2321],8.71 ± 0.47
7,TTAATATAATTAAAATGTACTTATTTGTAAACATTA [XGTACX_site6313],8.15 ± 0.52
8,GACCATGTTAACAAAGCATGCATCTCTATATGTTTA [TGCATGCA_site358],8.88 ± 0.38
9,ACATAAAATAAATATACACACATATGTATATATCAT [CACACA_site7424],9.2 ± 0.36
10,AAGAAAAACAATACGTGTACCAAGCATCCTACTAAC [XGTACX_site6628],9.06 ± 0.42
11,AAAAAAAAAAGAAAGAGTACTTTTTCAATACATATA [XGTACX_site2468],8.31 ± 0.52
12,TTATTTTATAAATCGAAAACAAACAAAAAAAAGATA [XGTACX_negctrl_site178],8.48 ± 0.33
13,TTGCTGTATTTATTTTGTACACATTTGGCATTATAT [XGTACX_site3408],9.19 ± 0.38
14,AACAAACACAGACACACACACACACTAATATGATTA [CACACA_site8770],10.2 ± 0.45
15,ATATACTATTATGTGTGTACATAATAATTTATTATA [XGTACX_site3776],8.91 ± 0.37
16,TCATACATTTTCCTTGCACACATTTATAATTAATGG [CACACA_site4511],9.11 ± 0.37
17,TAAAACAAAAAAAAGATGCACTATTTATTTTATTAT,8.46 ± 0.43
18,AAAAAAATATATATATATATATATATATTATATATG [GTGCAC_negctrl_site654],8.99 ± 0.29
19,TTTAAAAAAAAAAAAAAAAAAAAAAAAAAAAATTTG [CACACA_negctrl_site1235],7.96 ± 0.53
20,TAATTATAGGTATACACACACATACATTTACATAAC [CACACA_site7509],9.46 ± 0.36
21,TTTTATTATTTTTGTTGTACAGTATACTGTATGATT [XGTACX_site5359],8.98 ± 0.45
22,AAAAAAAAGGAAAATAAAAATAAAAAAAAATAATAA [XGTACX_negctrl_site601],8.55 ± 0.56

# Source: the supplement of paper PMC11417369
